# Reference: paper PMC6212790
# The list shows a part of the results. At the low end of the ranking the order means little.
# Molecular target: T1, GST-Rok (full length) (UniProt O34857)
# T1 sequence: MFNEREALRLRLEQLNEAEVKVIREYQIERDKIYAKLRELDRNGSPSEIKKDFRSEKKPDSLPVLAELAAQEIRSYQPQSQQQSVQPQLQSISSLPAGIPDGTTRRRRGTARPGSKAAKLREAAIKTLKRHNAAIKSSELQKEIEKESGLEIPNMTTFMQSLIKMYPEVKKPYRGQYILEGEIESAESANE
# Test: protein binding microarray;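 also: rank score from −0.5 (least bound) to 0.5 (best bound)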
# Conditions: Rok is a gene silencer of Bacillus subtilis; high values mean tight binding; most listed sequences are background and not binding sites; double strand, one strand shown
row,Sequence,binding signal [E-score]
1,CCGTTAGA,-0.0963
2,CATGAGGC,-0.198
3,ATAGAACG,0.11
4,AAACGTGA,0.144
5,AGACAGGC,-0.143
6,CAGTCGCG,-0.187
7,CTCTGTGA,0.00234
8,CAAGACGA,-0.0692
9,CAAAGGAC,-0.116
10,GTGGTGGA,-0.132
11,AGCTATCG,0.224
12,TCTCCAAA,0.089
13,AAATGTAT,0.281
14,CTGAAAGC,-0.133
15,AGAGTAGA,0.0878
16,AAGCCGAG,-0.0966
17,CGTTAATC,-0.0865
18,CAGGTGGA,-0.213
19,CGATACCA,-0.0203
20,CTAGCGAC,-0.128
21,AGAACCAT,0.144
22,CTCCCAAC,-0.0944
23,GGTAGATA,0.451
24,ACCTCACG,-0.0956
25,AGCGTACC,-0.18

row,Sequence,binding signal [E-score]
1,CCATATAA,0.229
2,CAGGTAAG,-0.187
3,TCTCCTCA,-0.207
4,AAGCATGG,-0.206
5,CGTGTATA,0.231
6,ACCACGGG,0.0041
7,ACTTACTC,-0.0454
8,ACGAGGAG,-0.25
9,CACCCACG,-0.0687
10,CGATCGTA,0.205
11,CGTAAACA,0.00287
12,CCCCAGAG,-0.367
13,TCAGTAAA,0.156
14,AGGAGGTA,-0.0728
15,ACTCCGAC,-0.0824
16,GATCGAGC,-0.00576
17,CAATCATA,0.249
18,CTCGATAA,-0.00299
19,AACGGAAC,-0.029
20,CAGTCTAG,-0.11
21,CCTGATAC,0.0473
22,CAAGGAAC,-0.117
23,AAAAACAA,0.0979
24,CAGAGGGG,-0.339
25,CTCAGACA,-0.0291

row,Sequence,binding signal [E-score]
1,AATGTAGC,0.221
2,AACTGGGT,-0.0493
3,GGGTGCGA,-0.193
4,AAGGTGAT,0.0467
5,CGGATGGC,-0.25
6,ACTGTAGA,0.373
7,AGTACCCC,-0.229
8,ATACTCAC,0.138
9,AATAACAA,0.222
10,ACATGTCA,0.0484
11,TCATGAGA,0.103
12,ACAGCAAT,0.231
13,CTCCGAAA,-0.0499
14,GAATGCTC,-0.0772
15,CCACACAG,-0.261
16,AATCTAGG,0.231
17,GGTCATTA,-0.136
18,ACGCCGCT,-0.055
19,CAACTATG,0.196
20,CGCGGTCA,-0.241
21,GTACTTCA,0.225
22,TCGTGACA,-0.14
23,ATCTTCTG,0.117
24,ATCAGACC,-0.137
25,AGAATGGA,-0.0221

row,Sequence,binding signal [E-score]
1,GACTTCGC,-0.0491
2,CCTACATC,0.0941
3,ACTGCGCA,-0.00651
4,CAGCGTGC,-0.252
5,ACTCGGTG,0.0069
6,CACGAACC,-0.0697
7,CGCGCGGC,-0.36
8,AAGGAACG,-0.179
9,ACGCTACT,0.205
10,CAGGCGAA,-0.183
11,GGTGAATA,0.0473
12,TCGAATAA,0.0382
13,ATTCTCTA,0.177
14,GATCCATA,-0.0316
15,CGGTCTTA,0.0367
16,CCCTCAAC,-0.112
17,TGCCCCAA,-0.187
18,GGTTAGTA,0.0365
19,GAATCGGA,-0.0832
20,CACATCCG,-0.0475
21,CCCGAACC,-0.294
22,GGAATAAC,-0.0551
23,ACATGCGG,0.0454
24,AGAAGTAA,0.164
25,AACCGGCG,-0.126

row,Sequence,binding signal [E-score]
1,TAAAACAA,0.203
2,ATAGTGTG,0.134
3,TAATCACA,0.134
4,AATTATAC,0.377
5,CCCCCCGA,-0.493
6,CCGGAAGC,-0.291
7,CGAAATAG,0.000759
8,GGAGGGAC,-0.384
9,ACAGGTCG,-0.197
10,ACCAAGAC,-0.0363
11,CACGGACA,-0.383
12,GACCGAGA,-0.0507
13,ACAGTTGA,0.166
14,ATCGGGAC,-0.0956
15,CCGTGGAG,-0.0755
16,ATTTATAC,0.356
17,TAACGTAA,0.0669
18,GCTCTTAA,-0.116
19,TCTTCCAA,-0.105
20,CGGATGTA,0.0664
21,CACGTTTC,0.0138
22,GAGCAGAA,-0.113
23,ACTCCATC,0.0464
24,ATCGATTA,0.0063
25,AGGCTCGC,-0.328

row,Sequence,binding signal [E-score]
1,CCACTGCA,-0.0838
2,AGTACGAT,0.134
3,AAATGGTG,-0.0649
4,ATAGTTTA,0.346
5,AGCTCGTA,-0.164
6,CGCGGCCA,-0.306
7,CGTGCGCC,-0.304
8,GACGCACA,-0.339
9,ATAGTGGG,0.128
10,ACGCGCCT,-0.254
11,ATTTATGG,0.218
12,ACCCAGCG,0.0259
13,CTACGCGC,-0.112
14,ACTAAACA,0.0776
15,AACATAAG,0.23
16,AGTACGGG,-0.14
17,CGCCGTCA,-0.191
18,CCTAGGCC,-0.185
19,GTTGAGTA,0.0513
20,ACCTTGTG,-0.104
21,CCACAGGA,0.0328
22,GCGACGGA,-0.218
23,CCAAGCTA,0.16
24,ATAGGCCG,-0.147
25,AGGGTTTG,-0.158

row,Sequence,binding signal [E-score]
1,ACCTTAAG,0.0261
2,CCGTTCCA,-0.0207
3,ACGCTCCT,-0.000812
4,ACATCAGA,0.0945
5,CTGATCAA,-0.12
6,ATTTTGCG,0.127
7,AGTTTACA,0.115
8,CCTAGTTC,0.0853
9,CTAGGTCA,-0.0595
10,TACGACCA,-0.0634
11,AGATAAGC,0.122
12,GCCTCAAA,-0.089
13,CTATGATA,0.172
14,GTATTATA,0.35
15,ACAATCGC,-0.0583
16,GGACATCC,-0.168
17,AAAGAGAA,-0.144
18,ACCACCTC,-0.0897
19,AACAGTGT,0.116
20,CAAAGCCC,-0.284
21,AGCGCACG,-0.149
22,AAAGGACC,-0.284
